{"source": "PubChem BioAssay AID1030", "about": "(National Center for Advancing Translational Sciences (NCATS), 2008)", "note": "Hit rate of the full screen: of about 220,000 compounds, about 16,000 (7.3%) were called active. This list was built around the results that the source calls inconclusive (neither active nor inactive); the mix of calls is not that of the screen. Calls come from the whole dose curve; as a rule, active = well fitted inhibition curve with a large enough effect (not every such curve was filed as active); inconclusive = small, poorly fitted or top-dose-only effect, or another doubt; inactive = no such curve, though single readings can be large or run the other way. Potencies of inconclusive entries are left out as doubtful fits. Potency is the fitted concentration of half-maximal effect; tags give direction and shape of the fitted curve."}
{"target": "Aldehyde dehydrogenase 1A1 (Homo sapiens) (UniProt P00352)", "sequence (P00352 whole entry, looked up)": "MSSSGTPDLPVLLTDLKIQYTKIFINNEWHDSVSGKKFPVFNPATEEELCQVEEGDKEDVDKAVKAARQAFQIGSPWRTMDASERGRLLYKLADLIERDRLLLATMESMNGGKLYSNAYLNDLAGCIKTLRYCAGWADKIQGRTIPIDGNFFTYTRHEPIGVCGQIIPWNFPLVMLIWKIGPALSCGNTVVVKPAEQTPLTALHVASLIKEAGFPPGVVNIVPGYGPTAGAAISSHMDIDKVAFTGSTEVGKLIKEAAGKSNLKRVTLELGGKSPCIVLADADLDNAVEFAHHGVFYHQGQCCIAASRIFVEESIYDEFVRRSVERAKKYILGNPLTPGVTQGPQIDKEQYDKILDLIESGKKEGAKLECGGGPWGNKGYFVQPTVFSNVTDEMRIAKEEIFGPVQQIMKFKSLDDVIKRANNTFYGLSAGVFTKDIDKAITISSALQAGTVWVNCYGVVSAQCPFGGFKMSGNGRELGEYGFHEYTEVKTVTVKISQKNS", "experiment": "qHTS Assay for Inhibitors of Aldehyde Dehydrogenase 1 (ALDH1A1);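 for activity, negative = inhibition: plate controls were no enzyme wells and a reference inhibitor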", "settings": "Purified ALDH1A1, NADH fluorescence, propionaldehyde substrate; series mostly up to 75.3 µM"}
{"smiles": "CCCCn1c(N)c(NCc2ccccc2OC)c(=O)[nH]c1=O", "Potency": "inconclusive [inhibitor, single point]"}
{"smiles": "COc1cc(/C=C(\\C#N)C(=O)Nc2cccnc2)ccc1OC(C)C", "Potency": "inactive"}
{"smiles": "C=C1c2ccccc2O[C@H](C(=O)OCC)[C@@H]1CC(C)(C)c1ccccc1", "Potency": "inactive"}
{"smiles": "Cc1nc(NCCO)c(C#N)c2c1COC(C)(C)C2", "Potency": "inconclusive [inhibitor, single point]"}
{"smiles": "COc1ccccc1NC(=O)c1oc2ccccc2c1NC(=O)c1ccco1", "Potency": "inconclusive [inhibitor, single point]"}
{"smiles": "Cc1nc2cnc(Oc3cccc(Cl)c3)nc2n(Cc2ccc(F)cc2)c1=O", "Potency": "inconclusive [inhibitor, single point]"}
{"smiles": "CCN(CC)c1ccc(C(=S)N2CCN(c3ccccc3)CC2)cc1", "Potency": "inconclusive [inhibitor, single point]"}
{"smiles": "Cc1cc2cc(CN(Cc3ccc4c(c3)OCO4)Cc3nnnn3C3CCCC3)c(=O)[nH]c2cc1C", "Potency": "active: 22.4 µM"}
{"smiles": "COc1ccc(S(=O)(=O)Nc2ccc(S(=O)(=O)N(C)C)cc2)cc1[N+](=O)[O-]", "Potency": "active: 12.6 µM"}
{"smiles": "Cn1c(=NC(=O)CCl)sc2ccccc21", "Potency": "active: 0.708 µM"}
{"smiles": "Cc1ccc(S(=O)(=O)N(C)C)cc1NC(=S)NCc1ccco1", "Potency": "inconclusive [inhibitor, partial curve]"}
{"smiles": "COC(=O)[C@@H](N)Cc1ccc(O)cc1", "Potency": "inactive"}
{"smiles": "COc1ccc(-c2nnc(SC(C)C(=O)NNC(=O)c3ccc(C)cc3)o2)cc1", "note": "(stereo unspecified)", "Potency": "inconclusive [inhibitor, single point]"}
{"smiles": "Cc1cccn2cc(-c3ccc(S(=O)(=O)N4CCOCC4)cc3)nc12", "Potency": "inconclusive [inhibitor, partial curve]"}
{"smiles": "COc1ccc(NC(=O)CCS(=O)(=O)c2cccc3nonc23)c(OC)c1", "Potency": "inconclusive [inhibitor, single point]"}
{"smiles": "Clc1c(-c2nnc3n2CCC3)sc2ccccc12", "Potency": "inconclusive [inhibitor, single point]"}
{"smiles": "NC(=O)C1=C[C@H](c2ccccc2)C[C@H](OCc2ccc(CO)cc2)O1", "Potency": "inconclusive [inhibitor, single point]"}
{"smiles": "COCCCNC(=S)NNC(=O)c1ccccn1", "Potency": "inconclusive [inhibitor, full curve]"}
{"smiles": "S=C(NCCN1CCOCC1)Nc1ccccc1Cl", "Potency": "inactive"}
{"smiles": "CCOC(=O)c1nnn(-c2nonc2N)c1CS(=O)(=O)c1ccccc1", "Potency": "inconclusive [inhibitor, single point]"}
{"smiles": "O=C(OC1CCCCC1)c1ccc(NC(=O)C2CCCCC2)cc1", "Potency": "inactive"}
{"smiles": "Cc1ccc(CCSc2ccc(C(C)C)cc2)cn1", "Potency": "inactive"}
{"smiles": "CCN(CC)CCNC(=O)c1ccc(N2CCCCC2)c(NS(=O)(=O)c2ccc(C)cc2)c1", "Potency": "active: 20 µM"}
{"smiles": "C=CCNC(=S)Nc1cccc(N)c1", "Potency": "inconclusive [inhibitor, single point]"}
{"smiles": "CCn1c(COc2ccccc2)nnc1SCC(=O)Nc1cc(OC)ccc1OC", "Potency": "inconclusive [inhibitor, single point]"}
{"smiles": "O=[N+]([O-])c1ccc(-c2ccc(/C=N/Nc3nc(NCc4ccccc4)nc(N4CCOCC4)n3)o2)cc1", "Potency": "inconclusive [inhibitor, single point]"}
{"smiles": "COc1cc2c(cc1OC)C(C)N(C(=S)NC(=O)c1ccccc1)CC2", "note": "(stereo unspecified)", "Potency": "inconclusive [inhibitor, single point]"}
{"smiles": "CC1=C[N+](=O)c2ccccc2[N+]1=O", "activity, negative = inhibition": "inactive: 13.9% [at 13.5 µM]"}
{"smiles": "CN(Cc1ccco1)c1ncncc1-c1ccoc1", "Potency": "inconclusive [inhibitor, single point]"}
{"smiles": "COc1ccc(Nc2ccc([N+](=O)[O-])cc2[N+](=O)[O-])cc1", "Potency": "inconclusive [inhibitor, partial curve]"}
{"smiles": "Cc1ccc(C(=O)Nc2nc(C(C)(C)C)cs2)s1", "Potency": "inconclusive [inhibitor, single point]"}
{"smiles": "COc1ccc(C(C)=O)cc1CSc1nncn1-c1ccccc1", "Potency": "inconclusive [inhibitor, single point]"}
{"smiles": "Cc1ccc(C(=O)N/N=C\\C=C\\c2ccccc2[N+](=O)[O-])cn1", "Potency": "active: 7.94 µM"}
{"smiles": "COc1ccc(C(=O)Nc2sc(C)c(-c3ccccc3)c2C#N)cc1OC", "Potency": "inconclusive [inhibitor, single point]"}
{"smiles": "COC(=O)N1C(/C=C/C=C/c2ccc(OC)cc2)=Cc2ccccc2C1CC(C)=O", "note": "(stereo unspecified)", "Potency": "inconclusive [inhibitor, single point]"}
{"smiles": "COc1ccc(OCCCC(=O)Nc2ccc3c(c2)OCO3)cc1", "Potency": "inconclusive [inhibitor, partial curve]"}
{"smiles": "COc1cccc(CNC(=O)CCC2CCCN(C(=O)C3=CC(=O)CC(C)(C)O3)C2)c1", "note": "(stereo unspecified)", "Potency": "inactive"}
{"smiles": "COc1ccc(Nc2ncccc2C(=O)Nc2ccccc2)cc1", "Potency": "inconclusive [inhibitor, single point]"}
{"smiles": "O=C(COc1ccc(S(=O)(=O)N2CCCC2)cc1)Nc1ccc2c(c1)OCCO2", "Potency": "inconclusive [inhibitor, partial curve]"}
{"smiles": "COc1cc(CNC(C)(C)CO)cc(Br)c1OCc1ccc(Cl)cc1Cl", "Potency": "inconclusive [inhibitor, single point]"}
{"smiles": "CC1(C)Cc2nc3sc4c(OCc5ccccc5)ncnc4c3cc2CO1", "Potency": "inconclusive [inhibitor, partial curve]"}
{"smiles": "O=C(Nc1cnn(Cc2ccc(Cl)cc2Cl)c1)c1cc(-c2cccs2)on1", "Potency": "inconclusive [inhibitor, single point]"}
{"smiles": "CCN(CC)c1ccc(NC(=O)c2cnccn2)cc1S(=O)(=O)Nc1ccc(OC)cc1", "Potency": "inactive"}
{"smiles": "Cc1cnc(CNc2ncncc2-c2ccc(N(C)C)cc2)cn1", "Potency": "inactive"}
{"smiles": "O=S(=O)(CCc1ccccc1)c1nnnn1-c1ccccc1", "Potency": "inactive"}
{"smiles": "Cc1cc(C)nc(SCC(=O)Nc2ncc(Cc3ccc(Cl)c(Cl)c3)s2)n1", "Potency": "inactive"}
{"smiles": "O=C(C1=C(O)C(=O)N(CCc2ccccc2)C1c1cccs1)c1ccco1", "note": "(stereo unspecified)", "Potency": "inactive"}
{"smiles": "CC(=O)N1CCN(c2ccc(Nc3ncnc4c3oc3ccccc34)cc2)CC1", "Potency": "inconclusive [inhibitor, single point]"}
{"smiles": "O=C(CSc1nc(-c2ccccc2)c(-c2ccccc2)[nH]1)Nc1ccc2c(c1)OCO2", "Potency": "inconclusive [inhibitor, partial curve]"}
{"smiles": "CCN(CC)S(=O)(=O)c1ccc(OC)c(NC(=O)c2cccs2)c1", "Potency": "inconclusive [inhibitor, single point]"}
{"smiles": "COCCCNC(=O)c1cn(CC(C)C)c(=O)c2c1c1ccccc1n2C", "Potency": "inconclusive [inhibitor, partial curve]"}
{"smiles": "CC(C)CCN(C(=O)Cc1ccc(Cl)c(Cl)c1)c1c(N)n(Cc2ccccc2)c(=O)[nH]c1=O", "Potency": "inactive"}
{"smiles": "Cc1cccc(C(=O)NC(=S)Nc2ccc(S(=O)(=O)N(C)c3ccccc3)cc2)c1", "Potency": "active: 20 µM"}
{"smiles": "CCCCC(=O)Nc1ccc(NC(=S)NC(=O)c2cccs2)cc1OC", "Potency": "active: 20 µM"}
{"smiles": "N#Cc1c(-c2ccccc2Cl)noc1/C=C/Nc1ccc(C(=O)O)cc1", "Potency": "inconclusive [inhibitor, partial curve]"}
{"smiles": "Cc1nn2c3c(cnc2c1-c1ccccc1)C(=O)CC(c1ccco1)C3", "note": "(stereo unspecified)", "Potency": "active: 25.1 µM"}
{"smiles": "COc1ccc(NC(=O)CN2c3cccc4cccc(c34)S2(=O)=O)cc1", "Potency": "inconclusive [inhibitor, single point]"}
{"smiles": "C=CCn1c(SCC(=O)NCC2CCCO2)nnc1-c1ccccc1", "note": "(stereo unspecified)", "Potency": "inactive"}
{"smiles": "Cc1oc2c(c1C(=O)N1CCOCC1)C(=O)c1ccccc1C2=O", "Potency": "inconclusive [inhibitor, single point]"}
{"smiles": "S=c1[nH]nc(CCc2ccccc2)n1-c1ccccc1", "Potency": "inconclusive [inhibitor, single point]"}
{"smiles": "O=C(c1c(Cl)nc2sccn12)N1CCCc2ccccc21", "Potency": "inconclusive [inhibitor, partial curve]"}
{"smiles": "CCCNS(=O)(=O)c1ccc(CCC(=O)Nc2ccc3c(c2)OCCO3)cc1", "Potency": "active: 10 µM"}
{"smiles": "Cc1c(N/N=C(\\C#N)C(=O)c2ccccc2)c(=O)n(-c2ccccc2)n1C", "Potency": "inconclusive [inhibitor, single point]"}
{"smiles": "COc1ccc(/C=C(/NC(=O)c2ccccc2)C(=O)N/N=C/c2ccncc2)cc1", "Potency": "inconclusive [inhibitor, partial curve]"}
{"smiles": "CCOc1ccc(-c2cc(C(=O)NCC3CCCO3)c3ccccc3n2)cc1", "note": "(stereo unspecified)", "Potency": "inconclusive [inhibitor, partial curve]"}
{"smiles": "Fc1ccc(/C=N/NC(=S)Nc2cccnc2)cc1F", "Potency": "inconclusive [inhibitor, single point]"}
{"smiles": "C/C(=N\\NS(=O)(=O)c1cccc([N+](=O)[O-])c1)c1cc2ccccc2o1", "Potency": "inconclusive [inhibitor, single point]"}
{"smiles": "C[C@@H]1CN(Cc2nc(-c3cccs3)no2)C[C@H](C)O1", "Potency": "inactive"}
{"smiles": "C/C(CC(=O)NC1CCCCC1)=N\\NC(=O)Cc1ccc(-c2ccccc2)cc1", "Potency": "inconclusive [inhibitor, full curve, poor fit]"}
{"smiles": "Cc1ccc(C)n1NC(=O)c1ccc([N+](=O)[O-])cc1", "Potency": "inactive"}
{"smiles": "COC(=O)c1ccc(C(=O)OC)c(NC(=O)COC(=O)CC2CC3CCC2C3)c1", "note": "(stereo unspecified)", "Potency": "inconclusive [inhibitor, partial curve]"}
